# Source: the supplement of paper PMC8728848
# This is one part of the list.
# B1: InvD YPIII (Yersinia pseudotuberculosis), B1JSC0 (protein)
# chain: MIKYFSFFKKPEPIVGILPNRQSHHILPTHIRRVAWGTLLLQLFIPLSVSFSPAIAAMKASKADTMVSYSSTEPYVLGSGETVAMVAKKYGITVDELKKINIYRTFSRPFTALTTGDEIDIPRKASPFSVDNNKDNRLSVENTLAGHAVAGATALSNGDVAKSGERMVRSAASNEFNNSAQQWLSQFGTARVQLNINDDFHLDGSAADVLIPLYDNEKSILFTQLGARNKDSRNTVNMGAGVRTFQGNWMYGANTFFDNDLTGKNRRIGVGAEAWTDYLKLSANNYFGITDWHQSRDFIDYNERPANGYDLRAEAYLPSYPQLGGKAMYEKYRGDDVALFGKDNRQKNPHAITAGVNYTPIPLVTIGAEHRAGKGGQNDSNINFQLNYRLGETWQSHIDPSAVAASRTLAGSRYDLVERNNHIVLDYQKQNLVRLSLPDSLAGDPFSQLSVTAQVTATHGLERIDWQSAELMAAGGVLKQTSKNGLEITLPEYQMNRTGGNSYILNAIAYDTQGNASSQASMLITVNAQKINIANSTLVAVPINIEANNSDTSVVTLTLKDDNNIPVTGQDVTFLSPLGTLSAMTDSGNGVYTATLTAGTVSGTTAVSSNINGSALDMTPATVTLNGNSGELSITHSMLVAAPVNIEANGSDTSVVTLTLRDSNNNPVTGQTVTFAGTLGTLGAVTEGSSGVYTATLTAGIMVGTSSITASVNSTALGVTPATVTLNGDSGNLSTTNSTLVAAPVNIEANSSDTSVVTLTLRDNNNNPVTGQTVVFTSTLGTLGNVTEQASGVYTATLTAGTVSGVASLSVSVGGNALGVTPATVTLNGDSGNLSTTNSTLVAAPVNIEANSSDTSVVTLTLRDNNNNPVTGQTVNFAGTLGTLGTVSEGSSGVYTTTLTAGTVAGVASLSVNVGGNALGVTPATVTLNGNSGNLSATNSTLVAAPVNIEANSSDTSVVTLTLRDNNNNPVTGQTVAFTSTLGTLGNVTEQASGVYTATLTAGTVSGVASLSVSVNSNALGVTPATVTLNGDSGNLSTTNSTLVAAPVNIEANSSDTSVVTLTLRDNNNNPVTGQTVAFTSTLGTLGNVTEQASGLYTATLTAGTVSGVASLSVNVGGNALGVTPATVTLNGDSGNLSATNSTLVAAPVNIEANSSDTSVVTLTLRDNNNNPVTGQTVAFTSTLGTLGNVTEQASGLYTATLTAGTVSGVASLSVNVGGTALGVTPATVTLNGDSGNLSTTNSTLVAAPVNIEANSSDTSVVTLTLRDNNNNPVTGQTVAFTSTLGTLGNVTEQASGLYTATLTAGTVSGVASLSVSVNSTALGVTPATVTLNGDSGNLSTTNSTLVAAPVNIEANSSDTSVVTLTLRDNNNNPVTGQTVAFTSTLGTLGNVTEQASGVYTATLTAGTVAGVASLSVNVGGNALGVTPATVTLNGDSGNLSTTNSTLVAAPVNIEANSSDTSVVTLTLRDNNNNPVTGQTVAFTSTLGTLGNVTEQASGVYTATLTAGTVSGVASLSVSVGSSALGVTPATVTLNGDSGNLSTTNSTLVAAPVNIEANNSDTSVVTLTLRDNNNNPVTGQTVAFTSTLGTLGNVTEQASGVYTATLTAGTVSGVASLSVSVNSNALGVTPATVTLNGDSGNLSTTNSTLVAAPVNIEANSSDTSVVTLTLRDNNNNPVTGQTVVFTSTLGTLGNVTEQASGLYTATLTAGTVSGVASLSVSVGGNALGVTGNITLAPGALDAARSILAVNKPSINADDRIGSTITFTAQDAQGNAITGLDIAFMTDLENSQIMTLVDHNDGTYTANINGTQTGIANIAVQSSGATIAGLAATMVTITPGAWNTTQATPVMTVALPITTCQSSSGVYKRYYIGIVTHELYDNYGNEISGILTYNLGAGRYTTVTSQNSSVSGSNGLTRRSNSPVSHFILTSDAYTSQAACYAERIANVNVTITVTAITDDFKTSAVNKVFILGTGSN
# What was measured:
# Assay in all cases: glycan array binding signal (z-score within array); higher = stronger binding
# Settings in all cases: glycan notation: IUPAC condensed, linker removed
# [1] = molecular target: GlcNAc(a1-6)Gal(b1-4)GlcNAc
# In short: (§1)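 Columns mapping to the same glycan were averaged after glycan names were converted to IUPAC-condensed notation. The data come from 3228 arrays in the Consortium for Functional Glycomics database, limited to those with an available protein sequence. Binding is reported as a within-array Z-score averaged across arrays of one protein sequence and across linkers.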
# [2] = molecular target: GlcNAc(b1-2)Gal(b1-3)GalNAc
# In short: as §1
# [3] = molecular target: GlcNAc(b1-2)Man(a1-3)[GlcNAc(b1-2)Man(a1-6)]Man(b1-4)GlcNAc(b1-4)GlcNAc
# In short: as §1
# [4] = molecular target: GlcNAc(b1-2)Man(a1-3)[GlcNAc(b1-2)Man(a1-6)]Man(b1-4)GlcNAc(b1-4)[Fuc(a1-6)]GlcNAc
# In short: as §1
# [5] = molecular target: GlcNAc(b1-2)Man(a1-3)[GlcNAc(b1-4)][GlcNAc(b1-2)Man(a1-6)]Man(b1-4)GlcNAc(b1-4)GlcNAc
# In short: as §1
# [6] = molecular target: GlcNAc(b1-2)Man(a1-3)[GlcNAc(b1-4)][GlcNAc(b1-2)Man(a1-6)]Man(b1-4)GlcNAc(b1-4)[Fuc(a1-6)]GlcNAc
# In short: as §1
# [7] = molecular target: GlcNAc(b1-2)[GlcNAc(b1-4)]Man(a1-3)[GlcNAc(b1-2)Man(a1-6)]Man(b1-4)GlcNAc(b1-4)GlcNAc
# In short: as §1
# [8] = molecular target: GlcNAc(b1-2)[GlcNAc(b1-4)]Man(a1-3)[GlcNAc(b1-4)][GlcNAc(b1-2)Man(a1-6)]Man(b1-4)GlcNAc(b1-4)GlcNAc
# In short: as §1
# [9] = molecular target: GlcNAc(b1-2)[GlcNAc(b1-4)]Man(a1-3)[GlcNAc(b1-4)][GlcNAc(b1-2)[GlcNAc(b1-6)]Man(a1-6)]Man(b1-4)GlcNAc(b1-4)GlcNAc
# In short: as §1
# [10] = molecular target: GlcNAc(b1-2)[GlcNAc(b1-4)]Man(a1-3)[GlcNAc(b1-4)][GlcNAc(b1-2)[GlcNAc(b1-6)]Man(a1-6)]Man(b1-4)GlcNAc(b1-4)[Fuc(a1-6)]GlcNAc
# In short: as §1
# [11] = molecular target: GlcNAc(b1-2)[GlcNAc(b1-6)]Man(a1-6)[GlcNAc(b1-2)Man(a1-3)]Man(b1-4)GlcNAc(b1-4)GlcNAc
# In short: as §1
# [12] = molecular target: GlcNAc(b1-2)[GlcNAc(b1-6)]Man(a1-6)[GlcNAc(b1-2)Man(a1-3)]Man(b1-4)GlcNAc(b1-4)[Fuc(a1-6)]GlcNAc
# In short: as §1
# [13] = molecular target: GlcNAc(b1-2)[GlcNAc(b1-6)]Man(a1-6)[GlcNAc(b1-4)][GlcNAc(b1-2)Man(a1-3)]Man(b1-4)GlcNAc(b1-4)GlcNAc
# In short: as §1
# GlcNAc(b1-3)Fuc = molecular target: GlcNAc(b1-3)Fuc
# In short: as §1
# GlcNAc(b1-3)Gal = molecular target: GlcNAc(b1-3)Gal
# In short: as §1
# [14] = molecular target: GlcNAc(b1-3)Gal(b1-3)GalNAc
# In short: as §1
# GlcNAc(b1-3)Gal(b1-4)Glc = molecular target: GlcNAc(b1-3)Gal(b1-4)Glc
# In short: as §1
# [15] = molecular target: GlcNAc(b1-3)Gal(b1-4)GlcNAc
# In short: as §1
# [16] = molecular target: GlcNAc(b1-3)Gal(b1-4)GlcNAc(b1-2)Man(a1-3)[GlcNAc(b1-3)Gal(b1-4)GlcNAc(b1-2)Man(a1-6)]Man(b1-4)GlcNAc(b1-4)GlcNAc
# In short: as §1
# [17] = molecular target: GlcNAc(b1-3)Gal(b1-4)GlcNAc(b1-2)Man(a1-3)[GlcNAc(b1-3)Gal(b1-4)GlcNAc(b1-2)Man(a1-6)]Man(b1-4)GlcNAc(b1-4)[Fuc(a1-6)]GlcNAc
# In short: as §1
# [18] = molecular target: GlcNAc(b1-3)Gal(b1-4)GlcNAc(b1-2)[GlcNAc(b1-3)Gal(b1-4)GlcNAc(b1-6)]Man(a1-6)[GlcNAc(b1-3)Gal(b1-4)GlcNAc(b1-2)Man(a1-3)]Man(b1-4)GlcNAc(b1-4)GlcNAc
# In short: as §1
# [19] = molecular target: GlcNAc(b1-3)Gal(b1-4)GlcNAc(b1-3)Gal(b1-4)GlcNAc
# In short: as §1
binder,measurement,setting,value
B1,glycan array binding signal (z-score),[1],-0.305
same,glycan array binding signal (z-score),[2],0.491
same,glycan array binding signal (z-score),[3],0.186
same,glycan array binding signal (z-score),[4],0.422
same,glycan array binding signal (z-score),[5],-0.366
same,glycan array binding signal (z-score),[6],-0.286
same,glycan array binding signal (z-score),[7],-0.085
same,glycan array binding signal (z-score),[8],-0.29
same,glycan array binding signal (z-score),[9],-0.404
same,glycan array binding signal (z-score),[10],-0.208
same,glycan array binding signal (z-score),[11],-0.237
same,glycan array binding signal (z-score),[12],-0.307
same,glycan array binding signal (z-score),[13],-0.227
same,glycan array binding signal (z-score),GlcNAc(b1-3)Fuc,-0.207
same,glycan array binding signal (z-score),GlcNAc(b1-3)Gal,-0.272
same,glycan array binding signal (z-score),[14],0.135
same,glycan array binding signal (z-score),GlcNAc(b1-3)Gal(b1-4)Glc,-0.325
same,glycan array binding signal (z-score),[15],-0.139
same,glycan array binding signal (z-score),[16],-0.006
same,glycan array binding signal (z-score),[17],-0.04
same,glycan array binding signal (z-score),[18],-0.181
same,glycan array binding signal (z-score),[19],-0.37
